Test results published in the RNAGym collection of RNA variant scans (doi:10.1093/nar/gkz1192).
The source gives no read counts; variants with many changes may rest on few reads.

B1: CPEB3 Ribozyme (parent)
chain: UAACAGGGGGCCACAGCAGAAGCGUUCACGUCGCAGCCCCUGUCAGAUUCUGGUGAAUCUGCGAAUUCUGCUGUAUAUCUC

Variants of: B1
Assay: self-cleavage, relative activity (ratio to wild type); higher = more cleavage; in vitro, sequencing
How it was run: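 CPEB3 self-cleaving ribozyme mutant libraries were made by rounds of error-prone PCR, barcoded, and transcribed in vitro with T7 RNA polymerase for 5 hours at 37°C. Cleavage occurred during transcription and a 15 min DNase I step before EDTA stop. RNAs were reverse transcribed with template switching and Illumina-sequenced, with DNA sequencing mapping barcodes to variants. Relative activity is the variant's cleaved/total read fraction divided by wild type's (minimum 5 reads), averaged across three batches.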
Variant U41C U43A C59A U67A has a self-cleavage of 0.27. In the case of U41C U43A U74C A75G, the self-cleavage is reported as 0.83. Work on U41C U43C C44U yielded a self-cleavage of 0.27. With U41C U43C U60A the self-cleavage was 0.2. With U41C U43C U60A U66C the self-cleavage was 0.13. U41C U43C U60A U67C showed a self-cleavage of 0.06. For U41C U43C U80C, the self-cleavage was 0.62. For U41C U43G A64U, the self-cleavage was 0.08. With U41C U48A U51C U66C U67A the self-cleavage was 0.44. U41C U48C U76C gave a self-cleavage of 0.95. U41C U49A U51A U58C A77G gave a self-cleavage of 0.17. In the case of U41C U49C G63U, the self-cleavage is reported as 0.54. For U41C U49C U51A A64G U72A, the self-cleavage was 0.32. Variant U41C U51A U74C has a self-cleavage of 1.24. Work on U41C U51C U60A yielded a self-cleavage of 0.44. For U41C U51C U69A, the self-cleavage was 0.85. For U41C U54A U69G, the self-cleavage was 0.85. Work on U41C U54C A57G A65U C79U yielded a self-cleavage of 0.12. In the case of U41C U58A A64C U80C, the self-cleavage is reported as 0.15. For U41C U58A C62U A64G, the self-cleavage was 0.38. For U41C U58C U66C U69C, the self-cleavage was 0.22. For U41C U58C U78G, the self-cleavage was 0.24. Work on U41C U58G C81U yielded a self-cleavage of 0.5. U41C U60A A75G gave a self-cleavage of 0.58. For U41C U60A U66C U76C, the self-cleavage was 0.4. In the case of U41C U60C U67A U78C, the self-cleavage is reported as 0.3. In the case of U41C U60C U67C U76A, the self-cleavage is reported as 0.36. U41C U60C U74C showed a self-cleavage of 0.97. Work on U41C U67C A75G yielded a self-cleavage of 0.3. With U41C U67C U69C the self-cleavage was 0.52. Variant U41C U69A C81U has a self-cleavage of 0.97. U41C U69C U72C A77G showed a self-cleavage of 0.55. U41C U72A A75G gave a self-cleavage of 0.94. With U41C U72A U78C the self-cleavage was 1.14. With U41C U74C C81U the self-cleavage was 1.29. With U41C U74G U78C the self-cleavage was 1.25. For U41C U74G U80G, the self-cleavage was 1.02. U41G A45U A57G showed a self-cleavage of 0.22. U41G A47G A56U A64G U69C A77G gave a self-cleavage of 0.2. U41G A57G A64G gave a self-cleavage of 0.24. Variant U41G A57G C62G has a self-cleavage of 0.14. In the case of U41G G46C U49C U69A, the self-cleavage is reported as 0.12. In the case of U41G U49C A56U U69C, the self-cleavage is reported as 0.2. Work on U41G U49C G55C U58C yielded a self-cleavage of 0.16. With U41G U51A A56G A65U U66C U74C the self-cleavage was 0.24. In the case of U41G U51A U76C, the self-cleavage is reported as 0.27. Work on U41G U51G U69C yielded a self-cleavage of 0.2. Work on U41G U66C U78A yielded a self-cleavage of 0.29. U41G U69A U80A gave a self-cleavage of 0.07. G42A A45G U49G showed a self-cleavage of 0.24. With G42A A45G U76C C79U the self-cleavage was 0.16. In the case of G42A A47G A57G U66C A77G, the self-cleavage is reported as 0.03. Work on G42A A56G U72C U76A yielded a self-cleavage of 0.36. G42A A57G U72A gave a self-cleavage of 0.36. G42A A64G U66C U69A gave a self-cleavage of 0.07. For G42A U43A U48C A65G U80A, the self-cleavage was 0.18. Work on G42A U43C A56G yielded a self-cleavage of 0.13. Work on G42A U48C G70A U72A yielded a self-cleavage of 0.12. G42A U51A U72C showed a self-cleavage of 0.22. For G42A U51C A57G U58G, the self-cleavage was 0.13. In the case of G42C U49C U72C U80C, the self-cleavage is reported as 0.16. Work on G42C U60C U67A yielded a self-cleavage of 0.12. Variant U43A A45G U54A U74A has a self-cleavage of 1.23. With U43A A45U G53A U60C A64G the self-cleavage was 0.25. Work on U43A A45U U67C yielded a self-cleavage of 0.23. In the case of U43A A47G A56G, the self-cleavage is reported as 0.64. Variant U43A A47G A56G U80A has a self-cleavage of 0.84. In the case of U43A A56C U60G, the self-cleavage is reported as 0.21. U43A A56G U60C C62U gave a self-cleavage of 0.24. For U43A A56G U74C U80C, the self-cleavage was 1.06. U43A A57G A65U U78C gave a self-cleavage of 0.13. In the case of U43A A64G U69C U72C, the self-cleavage is reported as 0.31. U43A A64U U78C showed a self-cleavage of 0.37. U43A A65C U78C gave a self-cleavage of 0.14. With U43A C50U A64G U66A the self-cleavage was 0.16. Variant U43A C50U U66C U72A has a self-cleavage of 0.41. With U43A C59U G61A A75G the self-cleavage was 0.2. U43A C62U U80C showed a self-cleavage of 0.2. In the case of U43A G46U U60G U69A, the self-cleavage is reported as 0.15. With U43A G52C C62A U80C the self-cleavage was 0.28. Work on U43A G55C U78A yielded a self-cleavage of 1.16. U43A G61C A65U U72A gave a self-cleavage of 0.39. U43A U48A U51C showed a self-cleavage of 0.81. U43A U48C A56G U72A U80G gave a self-cleavage of 0.2. U43A U48C G61A showed a self-cleavage of 0.25. For U43A U48C U80C, the self-cleavage was 0.97. For U43A U49C A64G U72C, the self-cleavage was 0.21. For U43A U51A A56G, the self-cleavage was 0.4. Work on U43A U51A A64U yielded a self-cleavage of 0.48. For U43A U51C A57G U67C U74C, the self-cleavage was 0.39. In the case of U43A U51C A65G U72A, the self-cleavage is reported as 0.23. With U43A U54C A56G A57G U67C the self-cleavage was 0.08. Work on U43A U54C U72A yielded a self-cleavage of 0.46. U43A U60A U69A showed a self-cleavage of 0.34. U43A U69A A77U showed a self-cleavage of 1.03. U43C A45G U54A C59G gave a self-cleavage of 0.1. U43C A45U U48C gave a self-cleavage of 0.35. With U43C A47G A56G U69A the self-cleavage was 0.09. U43C A47G C62A showed a self-cleavage of 0.26. For U43C A47G U51A U69C, the self-cleavage was 0.22. With U43C A47G U78A U80C the self-cleavage was 0.39. In the case of U43C A47U A64U U67C, the self-cleavage is reported as 0.09. Work on U43C A47U U72A U74A A75U yielded a self-cleavage of 0.09. With U43C A56G A64G the self-cleavage was 0.23. U43C A56G G63U showed a self-cleavage of 0.6. For U43C A56G U67C, the self-cleavage was 0.24. With U43C A56G U74A the self-cleavage was 0.68. In the case of U43C A56U A57G U74C, the self-cleavage is reported as 0.39. In the case of U43C A57G A65G U67G U72C, the self-cleavage is reported as 0.13. For U43C A57G U74A, the self-cleavage was 0.65. In the case of U43C A57U U78C, the self-cleavage is reported as 0.14. Variant U43C A64G A65U has a self-cleavage of 0.21. Work on U43C A64G A75G yielded a self-cleavage of 0.34. In the case of U43C A64G U76C, the self-cleavage is reported as 0.57. For U43C A64G U78C, the self-cleavage was 0.51. In the case of U43C A64U A65G U67C, the self-cleavage is reported as 0.05. In the case of U43C A65G A75G, the self-cleavage is reported as 0.05. U43C A65G U72A U78A showed a self-cleavage of 0.09. Work on U43C C44U C62U U67C yielded a self-cleavage of 0.06. Variant U43C G46U U51A has a self-cleavage of 0.17. U43C G52A A57U C79G gave a self-cleavage of 1.02. Work on U43C G53U U58C yielded a self-cleavage of 0.1. U43C U48A A77U gave a self-cleavage of 0.29. For U43C U48A U69C, the self-cleavage was 0.52. For U43C U48C U74C, the self-cleavage was 0.22. Variant U43C U49A A56G U60C has a self-cleavage of 0.12. Work on U43C U49A U51C A77U yielded a self-cleavage of 0.51. Variant U43C U49C A57G G61A A77G has a self-cleavage of 0.2. With U43C U49C A75G the self-cleavage was 0.75. For U43C U49C C81A, the self-cleavage was 0.44. In the case of U43C U49C U69A, the self-cleavage is reported as 0.08. With U43C U51A A56U C71U the self-cleavage was 0.12. U43C U51A G73A showed a self-cleavage of 1.27. With U43C U51A U60C U78A the self-cleavage was 0.21. For U43C U51C A57C, the self-cleavage was 0.36. Work on U43C U51G U54C U60C U67C U72A yielded a self-cleavage of 0.02. U43C U54C A64G U78C showed a self-cleavage of 0.13. For U43C U54C U76C, the self-cleavage was 0.31. With U43C U54G A56G U80A the self-cleavage was 0.25. In the case of U43C U54G U78A, the self-cleavage is reported as 0.63. Variant U43C U60A A64G has a self-cleavage of 0.35. With U43C U60A U69C C71G the self-cleavage was 0.13. For U43C U60C U72C U78C, the self-cleavage was 0.13. Work on U43C U60C U78C yielded a self-cleavage of 0.18. Work on U43C U60G A65G U78A yielded a self-cleavage of 0.1. U43C U66C U72A gave a self-cleavage of 0.14. In the case of U43C U67G U74C, the self-cleavage is reported as 0.26. For U43G A45G A56U, the self-cleavage was 0.1. U43G A47G U58A gave a self-cleavage of 0.48. U43G A64G A65C U67A U76A A77G showed a self-cleavage of 0.05. In the case of U43G A64U U67C, the self-cleavage is reported as 0.16. Work on U43G G53A U66C yielded a self-cleavage of 0.18. For U43G U48A U51C A56G, the self-cleavage was 0.18. Variant U43G U49A A77G has a self-cleavage of 0.36. Work on C44A A57G U78C yielded a self-cleavage of 0.23. Work on C44A U49C U54A U72C yielded a self-cleavage of 0.18. In the case of C44A U51C U78C, the self-cleavage is reported as 0.15. Variant C44G U54C A57G has a self-cleavage of 0.15. In the case of C44G U72C C81A, the self-cleavage is reported as 1.11. C44U A65G U78C gave a self-cleavage of 0.16. For C44U G55A U58C U72G A75U U78C, the self-cleavage was 0.11. C44U U48C U49G A56G U74A gave a self-cleavage of 0.05. In the case of C44U U49A A57G U58A U67C, the self-cleavage is reported as 0.1. Variant A45C A47U U51G has a self-cleavage of 0.15. A45C A57G U69C gave a self-cleavage of 0.17. Variant A45C U49A A64G has a self-cleavage of 0.37. In the case of A45C U49A U67C, the self-cleavage is reported as 0.44.
